Test results reported in the supplement of paper PMC3334620.
In all, about 33,000 sequences were measured (“E-score (-0.5 to 0.5)”: median about -0.041, highest 2% from about 0.37 on). The list shows a part of the results.

Target: T1, Ecm22 (UniProt Q05958)
T1 sequence: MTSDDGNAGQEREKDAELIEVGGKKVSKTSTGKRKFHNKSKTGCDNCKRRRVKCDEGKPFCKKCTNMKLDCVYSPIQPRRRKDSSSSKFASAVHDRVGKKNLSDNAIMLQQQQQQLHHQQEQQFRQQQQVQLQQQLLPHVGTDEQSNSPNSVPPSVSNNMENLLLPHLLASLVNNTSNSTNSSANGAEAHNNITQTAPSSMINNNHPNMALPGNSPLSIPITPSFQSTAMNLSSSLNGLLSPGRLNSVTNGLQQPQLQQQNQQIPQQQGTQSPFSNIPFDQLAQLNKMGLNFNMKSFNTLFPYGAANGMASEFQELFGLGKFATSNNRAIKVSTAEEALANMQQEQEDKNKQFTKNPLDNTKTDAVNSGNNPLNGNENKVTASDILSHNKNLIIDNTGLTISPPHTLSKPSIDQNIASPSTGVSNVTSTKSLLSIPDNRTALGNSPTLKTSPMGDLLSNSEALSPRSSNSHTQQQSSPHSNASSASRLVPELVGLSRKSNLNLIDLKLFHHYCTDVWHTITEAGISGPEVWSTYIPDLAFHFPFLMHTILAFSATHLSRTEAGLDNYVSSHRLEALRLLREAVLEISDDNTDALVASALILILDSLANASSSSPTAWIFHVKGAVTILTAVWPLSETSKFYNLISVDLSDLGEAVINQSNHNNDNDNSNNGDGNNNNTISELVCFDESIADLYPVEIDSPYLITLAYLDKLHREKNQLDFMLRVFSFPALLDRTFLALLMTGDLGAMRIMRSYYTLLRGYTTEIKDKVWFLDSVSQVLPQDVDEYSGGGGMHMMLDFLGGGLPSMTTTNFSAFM
Assay: PBM E-score (8-mer binding enrichment) (E-score (-0.5 to 0.5)); higher = stronger / more preferred TF binding; most listed sequences are background and not binding sites
Conditions: protein concentration: 200 nM; construct: GST-full length
Summary of the method: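 PURExpress in vitro transcription/translation supplied GST-tagged yeast transcription factors, either full-length or DNA-binding domain. Applied at about 100-200 nM to universal all-10-mer Agilent arrays double-stranded by primer extension, the bound protein was detected with fluorescent anti-GST. E-scores, modified Wilcoxon-Mann-Whitney statistics, were given by the Universal PBM Analysis Suite to ungapped eight-base words pooled with their reverse complements after masliner normalisation.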

Sequence	PBM E-score
GGACTCAC	-0.172
CCACAGAC	-0.288
CGACCCCC	-0.12
GAGGTCAC	-0.0843
CCGTCGAC	-0.115
CCCCAGGA	-0.304
GCTGATAC	0.0686
AATGACCG	0.0584
ACACGCCT	-0.162
CTCGCGCA	0.157
GTGGTAGA	-0.208
AATGCGCG	0.0895
ATCTGCTA	0.019
ACGTTGAC	0.0967
AGAAGCTA	-0.0596
CAAGGCGG	-0.186
ATACCCAA	-0.0827
GCAGGTAA	0.0142
GTCCCCAA	-0.0658
AATGGCAC	-0.283
AGCTGCTG	0.0118
ATGTTGTA	0.0872
CCGTCAGA	-0.155
CCGCCGGC	-0.254
ACTGAAAC	0.142

Sequence	PBM E-score
CTTTCCCC	-0.129
ACACAAAA	0.0511
ACAGTAGT	0.0302
CGTCTATA	-0.0795
CACGACCC	-0.0107
GCGTAGAA	-0.0103
ACTGTGTG	-0.0829
AACCTAGT	-0.228
ATTTTTAC	0.182
CTTCTCGA	-0.0882
AAGTGTGT	-0.156
GGAAAGGA	-0.143
GACCTAAC	0.129
AACGCCGG	-0.0456
ACGCGATC	0.235
ATGCCCAA	-0.0485
GAGACACC	-0.06
CGAGGACA	0.0726
AGTCTGAT	-0.119
GGCTTCAC	-0.171
GCCGATGA	-0.0632
ATCTGGTG	-0.107
CATATAGA	0.0615
CCATATAG	-0.00691
TAGGTGGA	-0.245

Sequence	PBM E-score
GGATCATA	-0.18
AAATATAC	0.169
CGTATGGA	0.383
CGACCAAA	0.307
GTTCTCCA	0.0352
AACTAGTT	-0.163
GGCTAACA	0.0425
ACTCGTAC	0.484
ATACCGAC	0.202
ATTAACTA	0.0313
CCAACTGG	-0.0629
ATATACCA	0.0649
ATTAATGG	0.14
GCTGAGTA	-0.195
CTAAAAGA	-0.134
AATAACGC	0.0149
GCTTATCA	-0.143
ATCCGATC	0.192
ACAACATC	-0.0933
TATATTGA	-0.0675
CCCTTAAG	-0.0729
AGTCTATC	-0.164
CCCCGATA	-0.067
CTCGTGGC	-0.196
GGTGAACC	-0.0366

Sequence	PBM E-score
AGTTAGAA	-0.188
CCGGTGTA	0.0643
AACGGCCT	0.225
CCTAAGTA	0.0729
GAGGAGTA	0.0709
GCAACGTA	0.136
CACACTTA	-0.132
AGGCCTGA	-0.274
AGTGGCTG	-0.0444
CTATGTAA	-0.149
ATCGAATG	-0.219
CGATCCAA	0.0344
AGCACTAT	-0.0613
CGTCCGCA	-0.136
ACGTTTCC	-0.0691
GATGATTA	0.0553
CGCTCCAA	0.159
GTTCTAAA	0.0119
CGGAGTTA	0.00617
GCCTACAA	-0.141
AACACTTG	0.0595
CCCCGAGA	-0.23
TCGAGGAA	0.101
ACTGCACG	-0.141
CGCTCGTC	0.168

Sequence	PBM E-score
CCAAGATC	0.079
ATCTTCCC	-0.0919
AATGAGCC	-0.23
AAATGTCT	-0.00532
GTCAATCA	-0.0528
ACGATGAC	0.304
CGCGTCCG	-0.0276
GCCCGACA	-0.141
AACCGATG	0.171
AACGGTGG	0.183
CATAAGAG	-0.108
AGAAGCTC	-0.0156
CATGCAGC	-0.17
AGAGAGGG	-0.223
GGAGTGCC	-0.116
AAAGCTGC	-0.0675
ACCGGGCA	-0.109
ATGCCTCG	0.175
ACCGACTA	-0.0152
AGCTGCAA	-0.204
CGATTTGA	0.166
GGGTGGAC	-0.17
GACCCCGA	-0.128
GAACTCCC	0.178
GGAGCTTA	-0.0571

Sequence	PBM E-score
GGGCCTCA	-0.197
ACTTTATC	-0.0438
AAGACCCG	-0.094
AATAGGCT	-0.109
GGGATAAC	-0.108
CCGAGCGA	0.237
CAAATGCC	-0.27
CAGCGCCC	-0.294
CTAATTGC	0.101
GGGTCTCA	-0.376
GTCGGCAA	0.132
CCTGTTGC	-0.189
AAGCCTCA	-0.23
TCTCCTAA	-0.203
ACAACTAG	-0.0801
GGTTCCAA	-0.0872
AACAGCGC	-0.0228
ACGTAAAC	0.28
TACTTCGA	0.168
AAACCGTC	0.0185
AATGCTAT	-0.0459
GGGCTAGA	-0.086
ACTCCTCC	-0.161
TCGAAAAA	0.253
AGGCATGA	-0.294

Sequence	PBM E-score
GATCTCCA	-0.188
ACTCTTAG	-0.239
GATATCGA	0.0707
ATCCGCCA	-0.0437
GAACCAAC	0.0239
ACGTTCAT	0.157
AAGAATCT	-0.234
GGGCCAGA	-0.231
GACACCCA	-0.171
GGCTTCCC	-0.255
AGGTCGAT	0.0332
GATACGAC	0.464
GAACAGGA	-0.145
ATGTCTAA	-0.194
AGTGATAC	0.129
CAAGTTGC	0.0504
CCTCCACA	-0.147
GTGCCTTA	-0.241
GTTTAACA	0.205
AGTACCTC	-0.19
CAAACGCC	-0.0203
ACGTTAGA	0.0552
